# Measurements from the supplement of paper PMC8728848.
# Some of the results follow.
# B1: Neuropilin-2 (Homo sapiens), O60462 (protein)
# chain: MDMFPLTWVFLALYFSRHQVRGQPDPPCGGRLNSKDAGYITSPGYPQDYPSHQNCEWIVYAPEPNQKIVLNFNPHFEIEKHDCKYDFIEIRDGDSESADLLGKHCGNIAPPTIISSGSMLYIKFTSDYARQGAGFSLRYEIFKTGSEDCSKNFTSPNGTIESPGFPEKYPHNLDCTFTILAKPKMEIILQFLIFDLEHDPLQVGEGDCKYDWLDIWDGIPHVGPLIGKYCGTKTPSELRSSTGILSLTFHTDMAVAKDGFSARYYLVHQEPLENFQCNVPLGMESGRIANEQISASSTYSDGRWTPQQSRLHGDDNGWTPNLDSNKEYLQVDLRFLTMLTAIATQGAISRETQNGYYVKSYKLEVSTNGEDWMVYRHGKNHKVFQANNDATEVVLNKLHAPLLTRFVRIRPQTWHSGIALRLELFGCRVTDAPCSNMLGMLSGLIADSQISASSTQEYLWSPSAARLVSSRSGWFPRIPQAQPGEEWLQVDLGTPKTVKGVIIQGARGGDSITAVEARAFVRKFKVSYSLNGKDWEYIQDPRTQQPKLFEGNMHYDTPDIRRFDPIPAQYVRVYPERWSPAGIGMRLEVLGCDWTDSKPTVETLGPTVKSEETTTPYPTEEEATECGENCSFEDDKDLQLPSGFNCNFDFLEEPCGWMYDHAKWLRTTWASSSSPNDRTFPDDRNFLRLQSDSQREGQYARLISPPVHLPRSPVCMEFQYQATGGRGVALQVVREASQESKLLWVIREDQGGEWKHGRIILPSYDMEYQIVFEGVIGKGRSGEIAIDDIRISTDVPLENCMEPISAFAGENFKVDIPEIHEREGYEDEIDDEYEVDWSNSSSATSGSGAPSTDKEKSWLYTLDPILITIIAMSSLGVLLGATCAGLLLYCTCSYSGLSSRSCTTLENYNFELYDGLKHKVKMNHQKCCSEA
# How the values were obtained:
# Assay in all cases: glycan array binding signal (z-score within array); higher = stronger binding
# Settings in all cases: glycan notation: IUPAC condensed, linker removed
# Man(a1-6)Man = molecular target: Man(a1-6)Man
# Procedure, shortened: (§1)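 Glycan array data were curated from 3228 arrays in the Consortium for Functional Glycomics database and kept only where the protein sequence was available. Glycan names were converted to IUPAC-condensed notation, and columns mapping to the same glycan were averaged. The binding signal is a within-array Z-score, averaged across arrays of the same protein sequence at different concentrations or buffers and across linkers. Negative Z-scores can be read as non-binding.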
# Man(b1-4)GlcNAc = molecular target: Man(b1-4)GlcNAc
# Procedure, shortened: as §1
# Neu5Ac(a2-3)Gal = molecular target: Neu5Ac(a2-3)Gal
# Procedure, shortened: as §1
# [1] = molecular target: Neu5Ac(a2-3)Gal(b1-3)GalNAc
# Procedure, shortened: as §1
# [2] = molecular target: Neu5Ac(a2-3)Gal(b1-3)GalNAc(b1-3)Gal(a1-4)Gal(b1-4)Glc
# Procedure, shortened: as §1
# [3] = molecular target: Neu5Ac(a2-3)Gal(b1-3)GalNAc(b1-3)Gal(b1-4)GlcNAc
# Procedure, shortened: as §1
# [4] = molecular target: Neu5Ac(a2-3)Gal(b1-3)GalNAc(b1-4)[Neu5Ac(a2-3)]Gal(b1-4)Glc
# Procedure, shortened: as §1
# [5] = molecular target: Neu5Ac(a2-3)Gal(b1-3)GalNAc6S
# Procedure, shortened: as §1
# [6] = molecular target: Neu5Ac(a2-3)Gal(b1-3)GlcNAc
# Procedure, shortened: as §1
# [7] = molecular target: Neu5Ac(a2-3)Gal(b1-3)GlcNAc(b1-3)Gal(b1-3)GlcNAc
# Procedure, shortened: as §1
# [8] = molecular target: Neu5Ac(a2-3)Gal(b1-3)GlcNAc6S
# Procedure, shortened: as §1
# [9] = molecular target: Neu5Ac(a2-3)Gal(b1-3)[Fuc(a1-4)]GlcNAc
# Procedure, shortened: as §1
# [10] = molecular target: Neu5Ac(a2-3)Gal(b1-3)[Fuc(a1-4)]GlcNAc(b1-3)Gal(b1-3)[Fuc(a1-4)]GlcNAc
# Procedure, shortened: as §1
# [11] = molecular target: Neu5Ac(a2-3)Gal(b1-3)[Fuc(a1-4)]GlcNAc(b1-3)Gal(b1-4)[Fuc(a1-3)]GlcNAc
# Procedure, shortened: as §1
# [12] = molecular target: Neu5Ac(a2-3)Gal(b1-3)[Neu5Ac(a2-3)Gal(b1-4)]GlcNAc
# Procedure, shortened: as §1
# [13] = molecular target: Neu5Ac(a2-3)Gal(b1-3)[Neu5Ac(a2-6)]GalNAc
# Procedure, shortened: as §1
# Neu5Ac(a2-3)Gal(b1-4)Glc = molecular target: Neu5Ac(a2-3)Gal(b1-4)Glc
# Procedure, shortened: as §1
# [14] = molecular target: Neu5Ac(a2-3)Gal(b1-4)GlcNAc
# Procedure, shortened: as §1
# [15] = molecular target: Neu5Ac(a2-3)Gal(b1-4)GlcNAc(b1-2)Man(a1-3)[GlcNAc(b1-2)Man(b1-4)GlcNAc(b1-2)Man(a1-6)]Man(b1-4)GlcNAc(b1-4)GlcNAc
# Procedure, shortened: as §1
# [16] = molecular target: Neu5Ac(a2-3)Gal(b1-4)GlcNAc(b1-2)Man(a1-3)[Neu5Ac(a2-6)Gal(b1-4)GlcNAc(b1-2)Man(a1-6)]Man(b1-4)GlcNAc(b1-4)GlcNAc
# Procedure, shortened: as §1
# [17] = molecular target: Neu5Ac(a2-3)Gal(b1-4)GlcNAc(b1-3)Gal(b1-3)GlcNAc
# Procedure, shortened: as §1
# [18] = molecular target: Neu5Ac(a2-3)Gal(b1-4)GlcNAc(b1-3)Gal(b1-4)GlcNAc
# Procedure, shortened: as §1
# [19] = molecular target: Neu5Ac(a2-3)Gal(b1-4)GlcNAc(b1-3)Gal(b1-4)GlcNAc(b1-3)Gal(b1-4)GlcNAc
# Procedure, shortened: as §1
# [20] = molecular target: Neu5Ac(a2-3)Gal(b1-4)GlcNAc(b1-3)Gal(b1-4)[Fuc(a1-3)]GlcNAc
# Procedure, shortened: as §1
# [21] = molecular target: Neu5Ac(a2-3)Gal(b1-4)GlcNAc(b1-3)GalNAc
# Procedure, shortened: as §1
# [22] = molecular target: Neu5Ac(a2-3)Gal(b1-4)GlcNAc(b1-6)[Gal(b1-3)]GalNAc
# Procedure, shortened: as §1
# [23] = molecular target: Neu5Ac(a2-3)Gal(b1-4)GlcNAc(b1-6)[Neu5Ac(a2-3)Gal(b1-3)]GalNAc
# Procedure, shortened: as §1
# [24] = molecular target: Neu5Ac(a2-3)Gal(b1-4)GlcNAc6S
# Procedure, shortened: as §1
# [25] = molecular target: Neu5Ac(a2-3)Gal(b1-4)[Fuc(a1-3)]GlcNAc
# Procedure, shortened: as §1
binder,measurement,setting,value
B1,glycan array binding signal (z-score),Man(a1-6)Man,-0.124
same,glycan array binding signal (z-score),Man(b1-4)GlcNAc,-0.332
same,glycan array binding signal (z-score),Neu5Ac(a2-3)Gal,-0.212
same,glycan array binding signal (z-score),[1],-0.714
same,glycan array binding signal (z-score),[2],-0.107
same,glycan array binding signal (z-score),[3],-0.318
same,glycan array binding signal (z-score),[4],-0.367
same,glycan array binding signal (z-score),[5],-0.43
same,glycan array binding signal (z-score),[6],-0.135
same,glycan array binding signal (z-score),[7],-0.476
same,glycan array binding signal (z-score),[8],-0.546
same,glycan array binding signal (z-score),[9],-0.253
same,glycan array binding signal (z-score),[10],0.377
same,glycan array binding signal (z-score),[11],-0.307
same,glycan array binding signal (z-score),[12],0.03
same,glycan array binding signal (z-score),[13],-0.262
same,glycan array binding signal (z-score),Neu5Ac(a2-3)Gal(b1-4)Glc,-0.126
same,glycan array binding signal (z-score),[14],-0.103
same,glycan array binding signal (z-score),[15],-0.909
same,glycan array binding signal (z-score),[16],-0.501
same,glycan array binding signal (z-score),[17],-0.964
same,glycan array binding signal (z-score),[18],-0.122
same,glycan array binding signal (z-score),[19],-0.169
same,glycan array binding signal (z-score),[20],-0.167
same,glycan array binding signal (z-score),[21],-0.64
same,glycan array binding signal (z-score),[22],-0.255
same,glycan array binding signal (z-score),[23],-0.664
same,glycan array binding signal (z-score),[24],0.663
same,glycan array binding signal (z-score),[25],-0.282
